# According to PubChem BioAssay AID886 (National Center for Advancing Translational Sciences (NCATS), 2007):
# “And” between values parts separate entries of the source, which are not always exact repeats. Equal entries are not always repeated. The campaign covered roughly 73,000 compounds. About 2,500 (3.4%) were called active. This list was built around the results that the source calls inconclusive (neither active nor inactive); the mix of calls is not that of the screen. The call rests on the fitted dose curve; in most records, active means well fitted inhibition curve with a large enough effect; inconclusive means small, poorly fitted or top-dose-only effect; inactive means no such curve, though single readings can be large or run the other way. Potencies of inconclusive entries are doubtful fits and often do not repeat.
# Target: 3-hydroxyacyl-CoA dehydrogenase type-2 (Homo sapiens) (UniProt Q99714)
# Test: qHTS Assay for Inhibitors of HADH2 (Hydroxyacyl-Coenzyme A Dehydrogenase, Type II); further: nearly all actives have a fitted effect of over 60% in size
# Conditions: recombinant HADH2, NADH fluorescence, beta-hydroxybutyryl-CoA; activity change, negative = inhibition: at 57.1 µM (top of the series)
# Summary of the method: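 20 nM HADH2 + cpd, 15 min RT; add 1 mM NAD+/90 uM beta-hydroxybutyryl-CoA; kinetic fluorescence 360/450 nm, 4 min. Tris-HCl pH 9.0, 0.01% Tween-20.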
# On the % scale 0 is the no-effect control and ±100 the full control effect; potency means the concentration at half of the fitted maximal effect; tags describe the fitted curve by direction and shape.
# UniProt Q99714, sequence (Q99714 whole entry, looked up): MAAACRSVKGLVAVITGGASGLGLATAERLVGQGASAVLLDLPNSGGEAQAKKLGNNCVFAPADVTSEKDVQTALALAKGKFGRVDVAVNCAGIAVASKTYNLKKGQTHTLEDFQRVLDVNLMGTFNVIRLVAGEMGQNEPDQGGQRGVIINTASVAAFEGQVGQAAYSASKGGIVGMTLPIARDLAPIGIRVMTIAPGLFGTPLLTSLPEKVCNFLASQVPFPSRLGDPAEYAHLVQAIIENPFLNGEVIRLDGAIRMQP
# UniProt Q99714, sequence (Q99714 whole entry, looked up): as above
Structure (SMILES),Potency,"activity change, negative = inhibition"
O=C1OC(c2ccc(O)cc2)(c2ccc(O)cc2)c2ccccc21,"inconclusive: 25.1 µM [inhibitor, partial curve]",
CC(=O)NC(=O)NC1OC(=O)C(Cl)=C1Cl (configuration not stated),"inconclusive: 20 µM [inhibitor, partial curve]",
Cc1ccc2c(c1)-c1c(cnn1CC(=O)Nc1ccccc1N1CCN(C)CC1)CO2,,inactive: 2.08%
O=c1c2ccccc2nc(SCc2nnc(-c3ccccc3Br)o2)n1-c1ccccc1,,inactive: 0.861%
N#Cc1cc2cc3c(cc2nc1N1CCOCC1)OCO3,"inconclusive: 5.01 µM [inhibitor, full curve, poor fit]",
Cn1c(=O)c2c(-c3ccccc3)n(CCCN3CCOCC3)cc2n(C)c1=O,"inconclusive: 3.98 µM [inhibitor, single point]",
Clc1ccc(CCNc2ncnc3nc[nH]c23)cc1,"inconclusive: 25.1 µM [inhibitor, partial curve]",
COC(=O)c1ccc(CSc2nc3c(cnn3-c3ccccc3)c(=O)[nH]2)o1,,inactive: -14.4%
CC(=O)NC1=NC(=O)/C(=C/N2CCCCC2)S1,,inactive: -1.85%
Cc1ccc(-c2cn3cccnc3n2)cc1NC(=O)c1ccc(Br)o1,active: 25.1 µM,
O=C1NC(=O)C(c2ccccc2[N+](=O)[O-])=C1Nc1ccc(O)c(Cl)c1,active: 3.16 µM and active: 199 nM,
CC1CCN(C(c2cc3cc4c(cc3[nH]c2=O)OCO4)c2nnnn2CC2CCCO2)CC1 (configuration not stated),"inconclusive: 39.8 µM [inhibitor, single point]",
Cc1cccc(Cc2c(C)nc3c(C(=O)NCc4ccco4)cnn3c2C)c1,active: 31.6 µM,
CCN(CC)c1nc2ccccc2nc1C(C#N)C(=O)NCCCOC (configuration not stated),,inactive: -0.789%
Cc1nc2c(C(=O)NCc3ccco3)cnn2c(C)c1Cc1ccc(F)cc1Cl,"inconclusive: 39.8 µM [inhibitor, single point]",
N#C/C(=C\c1ccc(O)c(O)c1)C(=O)Nc1ccccc1,"inconclusive: 39.8 µM [inhibitor, single point] and inconclusive: 31.6 µM [inhibitor, partial curve, poor fit]",
Cc1ccc(NC(=O)C(C)N2C(=O)c3ccccc3C2=O)cc1 (configuration not stated),,inactive: 12.5%
Nn1cnn(Cc2ccccc2)c1=S,"inconclusive: 31.6 µM [inhibitor, single point]",
c1ccc(-c2nnc3sc(-c4csc5c4CCCC5)nn23)cc1,active: 3.16 µM,
CCCS(=O)(=O)NCCc1cc2ccc(C)cc2[nH]c1=O,,inactive: -11.4%
COc1ccc(CCCC(=O)O)c(C)c1,inactive,
CN1Cc2sc(N)c(C#N)c2CC1(C)C,"inconclusive: 25.1 µM [inhibitor, single point]",
CN(Cc1ccccc1)c1oc(-c2ccco2)nc1C#N,"inconclusive: 39.8 µM [inhibitor, single point]",
COc1cc(CO)cc(Br)c1OCc1cccnc1,"inconclusive: 0.316 µM [inhibitor, full curve, poor fit]",
c1nc(N2CCNCC2)c2cc(-c3ccoc3)ccc2n1,"inconclusive: 31.6 µM [inhibitor, single point]",
NS(=O)(=O)c1cc(C(=O)O)c(Cl)c([N+](=O)[O-])c1Cl,,inactive: 11.6% [at 11.4 µM]

Structure (SMILES),Potency,"activity change, negative = inhibition"
Cc1nnc(SCc2ccc(CC(=O)O)cc2)o1,"inconclusive: 39.8 µM [inhibitor, single point]",
COC(C)(C)c1cc(C(C)(C)C)nc(N)n1,"inconclusive: 0.0316 µM [inhibitor, full curve, poor fit]",
Cn1cc(-c2nc3ccccc3[nH]2)c2ccccc21,active: 25.1 µM,
Brc1c(CSc2nc3ccccc3o2)nc2ncccn12,active: 25.1 µM,
CCc1nnc(NC(=O)CSc2nc3ccccc3s2)s1,"inconclusive: 25.1 µM [inhibitor, single point]",
Cc1c(Cl)cccc1Nc1ccccc1C(=O)O,,inactive: -1.19% [at 25.6 µM]
CC(=O)Nc1ccc(S(=O)(=O)Nc2nc3ccccc3nc2Sc2nncn2C)cc1,"inconclusive: 39.8 µM [inhibitor, single point]",
Cc1c(S(=O)(=O)N2CCN(c3cccc(C(F)(F)F)c3)CC2)c(=O)n(C)c(=O)n1C,"inconclusive: 6.31 µM [inhibitor, single point]",
C=C(CC1([C@@H](NP(=O)(c2ccccc2)c2ccccc2)[C@H]2C[C@@H]2CCN(C(=O)OCC)S(=O)(=O)c2ccc(C)cc2)CC1)c1ccccc1,,inactive: 0.736%
COc1ccccc1-c1nccc(Nc2ccc(F)cc2)n1,,inactive: 9.03%
CCN(CC)c1ccc2c(c1)CCCN2,"inconclusive: 3.16 µM [inhibitor, single point]",
O=c1c(-c2cc(F)cc(F)c2)nc2cnc(N3CCOCC3)nc2n1Cc1cccs1,,inactive: 2.48%
CCCCN(C)C(=O)c1c[nH]c2ccc(S(=O)(=O)N3CCOCC3)cc2c1=O,active: 20 µM,
COc1ccc(-c2nc(SC)n(C(=O)c3ccco3)n2)cc1,active: 20 µM,
Cc1ccccc1-c1ccc2ncnc(-n3ccnc3)c2c1,"inconclusive: 25.1 µM [inhibitor, single point]",
Cn1c(=O)c2c(ncn2CC(=O)N(Cc2ccccc2)c2ccccn2)n(C)c1=O,,inactive: 9.46%
N#Cc1cccc(NC(=O)Nc2cccs2)c1,"inconclusive: 25.1 µM [inhibitor, partial curve]",
Nc1c(C(=O)OCC2CCCO2)c2nc3ccccc3nc2n1C1CCCC1 (configuration not stated),"inconclusive: 39.8 µM [inhibitor, single point]",
CCCn1c(=N)n(CCOc2ccc(OC)cc2)c2ccccc21,,inactive: 1.18%
O=C(Nc1cccnc1)c1cc2c(ccc3ccccc32)o1,active: 31.6 µM,
Cc1cccc(OCC(=O)NCCN2CCOCC2)c1,"inconclusive: 25.1 µM [inhibitor, single point]",
Nc1ccc(Nc2ccccc2N)cc1,"inconclusive: 3.16 µM [inhibitor, full curve]",
CN1CCN(c2nc(-c3ccccc3)c3cc(Cl)ccc3n2)CC1,,inactive: 14.7%
COCCN(Cc1cc2cc3c(cc2[nH]c1=O)OCO3)C(=O)c1cccs1,"inconclusive: 39.8 µM [inhibitor, single point]",
Cc1nn(CC(O)Cn2c3c(c4ccccc42)CCN(C)C3=O)c(C)c1Br (configuration not stated),"inconclusive: 7.94 µM [inhibitor, single point]",
CCC(=O)Nc1c(C(=O)Nc2cccc(OC)c2)oc2ccccc12,"inconclusive: 39.8 µM [inhibitor, single point]",

Structure (SMILES),Potency,"activity change, negative = inhibition"
Cc1cc(C)c(NC(=O)CSc2nc3c(c(=O)n2C)SC(C)C3)c(C)c1 (configuration not stated),"inconclusive: 31.6 µM [inhibitor, single point]",
CC(=O)CC(=O)Nc1ccccc1NC(C)=O,,inactive: -13.8%
CCOC(=O)c1nn(-c2ccccc2)c(C(=O)OCC)c1N,active: 31.6 µM,
C=CCNC(=O)c1cnc2n(c1=O)CCS2,"inconclusive: 0.794 µM [inhibitor, single point]",
COCc1[nH]nc2c1C(c1cc(OC)c(O)c(OC)c1)C(C#N)=C(N)O2 (configuration not stated),"inconclusive: 0.631 µM [inhibitor, full curve]",
COCCn1c(=O)c(-c2cn(C)c3ccccc23)nc2cnc(N3CCNCC3)nc21,,inactive: 0.141%
Cc1cc(Nc2ccccc2)nc(-c2ccccc2O)n1,"inconclusive: 31.6 µM [inhibitor, single point]",
O=C(c1ccc(Br)o1)N1CCN(c2ccc3nnc(-c4ccccc4)n3n2)CC1,"inconclusive: 39.8 µM [inhibitor, single point]",
O=C(NCCCN1CCOCC1)c1ccc(Cc2nc3ccccc3[nH]2)cc1,,inactive: -0.294%
Cc1c(Cc2ccccc2)sc(N)c1C(N)=O,active: 5.01 µM,
O=C(Nc1nnc(C2CCCO2)s1)c1cccs1 (configuration not stated),"inconclusive: 39.8 µM [inhibitor, single point]",
COc1ccc(C)cc1NC(=O)c1nnn(Cc2cccc(F)c2)c1N,active: 25.1 µM,
COc1ccccc1-c1nc(C(N)=O)c2[nH]c(=O)n(-c3cccc(C)c3)c2n1,active: 25.1 µM,
NC(=O)c1cccc2c3c([nH]c12)CCCC3,"inconclusive: 31.6 µM [inhibitor, single point]",
O=C(COc1ccccc1)Nc1ccccc1N1CCN(c2ccc(F)cc2)CC1,"inconclusive: 3.16 µM [inhibitor, single point]",
O=C(CSc1nccc(=O)[nH]1)Nc1ccc(F)c(Cl)c1,"inconclusive: 31.6 µM [inhibitor, single point]",
Nc1c(C(=O)NCCN2CCOCC2)c2nc3ccccc3nc2n1CCc1ccccc1F,active: 25.1 µM,
O=C(OCCCCN1C(=O)c2ccccc2C1=O)c1n[nH]c2ccccc12,"inconclusive: 31.6 µM [inhibitor, single point]",
COc1cc2c(cc1OC)-c1cc(OCCN3CCOCC3)nc(=O)n1CC2,active: 3.16 µM,
CC(=O)Nc1ccccc1C=C1c2ccccc2-c2ccccc21,,inactive: 3.98% [at 11.4 µM]
S=C(S)NCCCn1ccnc1,active: 3.98 µM,
CCOC(=O)c1cc2c(=O)n3cccc(C)c3nc2n(CCCOC)c1=NC(=O)c1cccnc1,active: 3.16 µM,
COCCCN1C(=O)C(=O)/C(=C(/O)c2ccccc2)C1c1ccc2c(c1)OCO2 (configuration not stated),"inconclusive: 20 µM [inhibitor, single point]",
CC(=O)Nc1nc2ccccc2n1CCN1CCOCC1,"inconclusive: 31.6 µM [inhibitor, single point]",
O=C(Nc1nc(-c2ccc3c(c2)OCO3)cs1)C1COc2ccccc2O1 (configuration not stated),"inconclusive: 1 µM [inhibitor, full curve]",
